Data: patent US20250000946A1 (WUXI BIOLOGICS IRELAND, published 2025)

Assays:
[1] = biological target: T1, Human IL-2Rβ/γ (intermediate affinity IL-2 receptor) (human, UniProt P14784 27-551; P31785 23-369); test: FACS, HH cells
T1 construct: whole, on cells; also called IL-2Rβ/γc; IL-2Rβ (CD122) and γ (CD132)
T1 sequence (looked up) 1: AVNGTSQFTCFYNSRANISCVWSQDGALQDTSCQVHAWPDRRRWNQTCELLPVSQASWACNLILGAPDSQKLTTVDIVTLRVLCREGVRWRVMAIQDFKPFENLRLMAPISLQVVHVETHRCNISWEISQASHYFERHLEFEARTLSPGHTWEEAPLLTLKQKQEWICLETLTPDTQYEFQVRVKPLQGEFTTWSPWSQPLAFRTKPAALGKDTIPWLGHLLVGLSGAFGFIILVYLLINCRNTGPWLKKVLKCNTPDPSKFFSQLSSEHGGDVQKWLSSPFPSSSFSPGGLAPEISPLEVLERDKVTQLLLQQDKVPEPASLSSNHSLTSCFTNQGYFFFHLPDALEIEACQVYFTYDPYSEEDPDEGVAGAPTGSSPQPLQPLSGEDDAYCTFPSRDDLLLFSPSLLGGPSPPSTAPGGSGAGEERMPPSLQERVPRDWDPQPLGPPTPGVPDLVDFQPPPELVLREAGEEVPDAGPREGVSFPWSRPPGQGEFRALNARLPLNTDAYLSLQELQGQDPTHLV
T1 sequence (looked up) 2: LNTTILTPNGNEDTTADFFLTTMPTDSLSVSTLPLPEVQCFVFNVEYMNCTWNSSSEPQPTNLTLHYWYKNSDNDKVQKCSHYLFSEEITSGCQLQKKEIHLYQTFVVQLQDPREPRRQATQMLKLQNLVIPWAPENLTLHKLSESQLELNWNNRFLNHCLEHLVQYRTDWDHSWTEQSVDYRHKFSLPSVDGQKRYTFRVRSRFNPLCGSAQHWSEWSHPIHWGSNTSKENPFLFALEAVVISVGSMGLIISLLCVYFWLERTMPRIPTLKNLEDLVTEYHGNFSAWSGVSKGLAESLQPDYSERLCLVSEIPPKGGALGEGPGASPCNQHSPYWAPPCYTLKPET
Experimental: (§1) Human cutaneous T cell lymphoma HH cells, malignant non-Hodgkin's lymphoma NK92 cells and cutaneous T cell lymphoma MJ20 cells were used for binding assay. They both constitutively express IL-2Rβ (CD122) and […] (CD132), and NK92 and MJ20 also expresses IL-2Rα (CD25). HH, NK92 and MJ20 cells were cultured following ATCC guidance, then transferred to a 96-plate for binding analysis. Cells were incubated with IL-2/Fc fusion proteins at the indicated concentrations for 30 min at 4° C. to avoid internalization. Binding was detected by 2nd antibody of PE-anti-human Fc at 4° C. for another 30 min. The median fluorescence intensity (MFI) on HH and NK92 cells was measured using FACS.

[2] = biological target: T2, Human IL-2Rα/β/γ complex (high affinity IL-2 receptor) (human, UniProt P01589 22-272; P14784 27-551; P31785 23-369); test: FACS, MJ20 cells
T2 construct: whole, on cells
T2 sequence (looked up) 1: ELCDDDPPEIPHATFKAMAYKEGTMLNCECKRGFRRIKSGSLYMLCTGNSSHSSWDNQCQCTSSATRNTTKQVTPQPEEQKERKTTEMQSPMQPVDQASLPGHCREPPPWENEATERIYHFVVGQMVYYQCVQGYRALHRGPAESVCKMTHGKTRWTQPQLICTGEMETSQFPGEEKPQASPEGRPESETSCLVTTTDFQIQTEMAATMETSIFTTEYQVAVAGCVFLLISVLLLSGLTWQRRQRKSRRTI
T2 sequence (looked up) 2: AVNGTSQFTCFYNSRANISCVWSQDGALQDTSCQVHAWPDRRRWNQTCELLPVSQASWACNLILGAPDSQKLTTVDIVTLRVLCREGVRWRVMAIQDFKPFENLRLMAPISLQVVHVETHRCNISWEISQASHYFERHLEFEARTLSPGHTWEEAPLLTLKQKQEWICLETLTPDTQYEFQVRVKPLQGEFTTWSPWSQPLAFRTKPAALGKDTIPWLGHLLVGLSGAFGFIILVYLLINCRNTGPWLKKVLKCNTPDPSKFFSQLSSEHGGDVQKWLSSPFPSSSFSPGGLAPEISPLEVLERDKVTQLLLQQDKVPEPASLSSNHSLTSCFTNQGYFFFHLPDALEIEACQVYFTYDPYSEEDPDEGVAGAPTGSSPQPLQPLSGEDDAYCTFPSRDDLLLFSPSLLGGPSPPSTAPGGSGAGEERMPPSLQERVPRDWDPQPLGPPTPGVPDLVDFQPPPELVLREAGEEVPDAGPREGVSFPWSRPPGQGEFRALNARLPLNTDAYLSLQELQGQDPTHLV
T2 sequence (looked up) 3: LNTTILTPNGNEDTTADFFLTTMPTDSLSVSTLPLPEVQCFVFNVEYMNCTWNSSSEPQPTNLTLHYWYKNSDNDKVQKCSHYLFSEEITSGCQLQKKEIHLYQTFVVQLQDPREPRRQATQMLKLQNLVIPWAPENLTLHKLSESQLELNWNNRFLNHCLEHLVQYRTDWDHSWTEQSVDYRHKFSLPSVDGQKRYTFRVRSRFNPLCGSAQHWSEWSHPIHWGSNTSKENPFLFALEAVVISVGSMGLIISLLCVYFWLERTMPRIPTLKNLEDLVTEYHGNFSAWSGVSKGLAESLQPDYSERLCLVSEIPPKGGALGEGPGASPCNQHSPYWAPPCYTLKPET
Experimental: as §1
(§2) Affinity of IL-2 variants to IL-2Rα/β/γ supported the same results (FIG. 8 and Table 7). […] And T2U0.E44-26, T2U0.E44-27, T2U0.E44-29 and T2U0.E44-30 induced hundreds to thousands affinity reduction in Treg compared to T2U0.E44-1. Binding curves in MJ20 cells (IL-2Rα/β/γ) also achieved similar trend (FIG. 8b). As a result, the method of C-terminal truncation and substitution of 129 was available to achieve IL-2Rβγ attenuated IL-2 variants.

[3] = biological target: T2, Human IL-2Rα/β/γ complex (high affinity …); test: FACS, MJ20 cells; remark: listed apart in the source
Experimental: as §1

[4] = biological target: T1, Human IL-2Rβ/γ (intermediate affinity …); test: cell-based or functional assay
[5] = biological target: T2, Human IL-2Rα/β/γ complex (high affinity …); test: cell-based or functional assay
[6] = biological target: T1, Human IL-2Rβ/γ (intermediate affinity …); test: cell-based or functional assay; remark: listed apart in the source
[7] = biological target: T2, Human IL-2Rα/β/γ complex (high affinity …); test: cell-based or functional assay; remark: listed apart in the source
[8] = biological target: T1, Human IL-2Rβ/γ (intermediate affinity …); test: FACS, HH cells; EC50 fold vs T2U0.E44-1
Experimental: as §1

[9] = biological target: T1, Human IL-2Rβ/γ (intermediate affinity …); test: FACS, HH cells; EC50 fold vs T2U0.E44-1; remark: listed apart in the source
Experimental: as §1
IL-2 variants of T2U0.E44-6 and T2U0.E44-26 were used to construct bivalent variants W3XX115-T2.Z20-1.uIgG4V322 and W3XX115-T2.Z20-2.uIgG4V322 respectively.

[10] = biological target: T2, Human IL-2Rα/β/γ complex (high affinity …); test: FACS, MJ20 cells; EC50 fold vs T2U0.E44-1
Experimental: as §1, §2

[11] = biological target: T2, Human IL-2Rα/β/γ complex (high affinity …); test: FACS, MJ20 cells; EC50 fold vs T2U0.E44-1; remark: listed apart in the source
Experimental: as §1

B1: W3XX115-T2U0.E44-1.uIgG4V322 (Fc fusion)
chain: [no letters for about 150 residues]ESKYGPPCPPCPAPEAAGGPSVFLFPPKPKDTLMISRTPEVTCVVVDVSQEDPEVQFNWYVDGVEVHNAKTKPREEQFNSTYRVVSVLTVLHQDWLNGKEYKCKVSNKGLPSSIEKTISKAKGQPREPQVYTLPPCQEEMTKNQVSLWCLVKGFYPSDIAVEWESNGQPENNYKTTPPVLDSDGSFFLYSRLTVDKSRWQEGNVFSCSVMHEALHNHYTQKSLSLSLG
heavy: EIQLQQSGPELVKPGASVKVSCKASGYSFTDYNMYWVKQSHGESLEWIGYIDPYNGGTRYNQKFKGKATLTVDKSSSTAFMHLNSLTSEDSAVYYCARNGHWDGAWFAYWGQGTLVTVSAASTKGPSVFPLAPCSRSTSESTAALGCLVKDYFPEPVTVSWNSGALTSGVHTFPAVLQSSGLYSLSSVVTVPSSSLGTKTYTCNVDHKPSNTKVDKRVESKYGPPCPPCPAPEAAGGPSVFLFPPKPKDTLMISRTPEVTCVVVDVSQEDPEVQFNWYVDGVEVHNAKTKPREEQFNSTYRVVSVLTVLHQDWLNGKEYKCKVSNKGLPSSIEKTISKAKGQPREPQVCTLPPSQEEMTKNQVSLSCAVKGFYPSDIAVEWESNGQPENNYKTTPPVLDSDGSFFLVSRLTVDKSRWQEGNVFSCSVMHEALHNHYTQKSLSLSLG
light: DIQMNQSPSSLSASLGDTITITCHASQNINVWLSWYQQKPGNIPKLLIYKASNLHTGVPSRFSGSRSGTGFTLTISSLQPEDIATYYCHQGQSYPFTFGSGTKLEIKRTVAAPSVFIFPPSDEQLKSGTASVVCLLNNFYPREAKVQWKVDNALQSGNSQESVTEQDSKDSTYSLSSTLTLSKADYEKHKVYACEVTHQGLSSPVTKSFNRGEC
notes: WT IL-2, no linker, IgG4 Fc with FALA, one Fab arm (E44 format); also called T20.E44-1; wild-type IL-2
- EC50 [1]: 50.5 nM
- EC50 [2]: 14 nM
- EC50 [3]: 45.9 nM
- Potency in human CD8+ T EC50 [4]: 20 nM
- Potency reduction (CD8+ T) [4]: 1 fold
- Potency in human Treg EC50 [5]: 0.0025 nM
- Potency reduction (Treg) [5]: 1 fold
- Potency in human CD8+ T EC50 [6]: 10.2 nM
- Potency reduction (CD8+ T) [6]: 1 fold
- Potency in human Treg EC50 [7]: 0.002 nM
- Potency reduction (Treg) [7]: 1 fold
- Affinity reduction [8]: 1 fold
- Affinity reduction [9]: 1 fold
- Affinity reduction [10]: 1 fold
- Affinity reduction [11]: 1 fold

Read-outs that look alike come from different tables or passages of the source.
